Experimental data published in PubChem BioAssay AID686979 (National Center for Advancing Translational Sciences (NCATS), 2013).
Hit rate of the full screen: of about 420,000 compounds, about 50,000 (12%) were called active. Inconclusive results, whose numbers are uncertain, are shown with a selection of clear calls. Calls come from the whole dose curve; as a rule, active = well fitted inhibition curve with a large enough effect; inconclusive = small, poorly fitted or top-dose-only effect; inactive = flat fitted curve, though single readings scatter. No potency is given beside an inconclusive call; the fits are too rough.

Assay: qHTS for Inhibitors of human tyrosyl-DNA phosphodiesterase 1 (TDP1): qHTS in cells in presence of CPT; note: nearly all actives have a fitted effect of over 55% in size
Details: chicken DT40 Tdp1-/-;hTDP1 cells + 20 nM CPT, ATP luminescence, 48 h; activity change, negative = growth inhibition: at 46.2 µM (top of the series)
How it was run: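 Chicken DT40 Tdp1-/- cells stably complemented with human TDP1 were seeded at 400 cells/well in medium containing 20 nM camptothecin, exposed to pin-transferred compounds, and grown at 37 °C for at least 48 hr. Viability was read as ATP luminescence.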
% is set by controls: 0 for no effect and ±100 for the full control effect; potency is the fitted concentration of half-maximal effect; tags give direction and shape of the fitted curve.

With COc1ccc(C2N=C(Nc3nc4ccccc4o3)NC3=C2C(=O)CC(C)(C)C3)cc1 (centres undefined) as the molecule, how does the Potency read?
The Potency was active: 6.31 µM.

For COc1ccc(/C=N/NC(=O)c2cccc(Br)c2)cc1Cn1cc(Cl)cn1, which Potency is on record?
Its Potency is inconclusive [inhibitor, single point].

Which Potency does the source give for Cc1cc(CN2C(=O)c3ccccc3C2=O)cc(N2CCOCC2)c1 here?
The Potency was “inactive”.

Which Potency does the source give for CCOc1ccc(-c2nc(-c3ccccc3)c(-c3ccccc3)[nH]2)cc1OCC here?
Its Potency is active: 20.6 µM.

Which Potency does the source give for CC[C@@H]1CC=C[C@H]2[C@H]1C(=O)N(Cc1ccccc1)[C@H]2c1ccoc1 here?
The Potency was active: 16.4 µM.

Which Potency does the source give for Cc1cc(N2CCC(C)CC2)nc2ccc(NC(=O)Cc3ccccc3Br)cc12 here?
The Potency was active: 20.6 µM.

For COc1ccc2cc1Oc1cc3c(cc1OC)CC[N+](C)(C)[C@H]3Cc1ccc(cc1)Oc1c(OC)c(OC)cc3c1[C@@H](C2)[N+](C)(C)CC3, which Potency is on record?
The Potency was “inactive”.

Which Potency does the source give for COc1ccc(/C=C/C(=O)Nc2ccccc2C(F)(F)F)cc1 here?
Its Potency is inconclusive [inhibitor, single point].

Which activity change, negative = growth inhibition does the source give for CCOC(=O)Cn1nc(-c2ccc(C)cc2)ccc1=O here?
The activity change, negative = growth inhibition was inconclusive: -32% [inhibitor].

With Cc1cccc(C(=O)Nc2cccc3c2CCCC3)c1 as the molecule, how does the Potency read?
Its Potency is active: 18.4 µM.

For COC(=O)C1=C[C@@H](C(=O)OC)[C@@H]2C3=C(C(=O)C2(C)C)[C@H](C)n2c(=O)n(-c4ccccc4)c(=O)n2[C@@H]3C1, which Potency is on record?
Its Potency is inconclusive [inhibitor, single point].

Which Potency does the source give for O=S1(=O)CC(N2CCC(Cc3ccccc3)CC2)CN1Cc1ccccc1 (centres undefined) here?
Its Potency is inconclusive [inhibitor, single point].

Which Potency does the source give for CCCc1nc2ccc(NC(=O)c3cccs3)cc2c(=O)n1Cc1ccccc1Cl here?
The Potency was inconclusive [inhibitor, single point].

Which Potency does the source give for CCN(CC)S(=O)(=O)c1cc(C(=O)Nc2ccc(Cl)cn2)ccc1C here?
The Potency was inconclusive [inhibitor, single point].

Which Potency does the source give for COc1cc(/C=C/C(=O)N2C(=O)c3cccc(N)c3C2=O)cc(OC)c1OC here?
The Potency was active: 5.8 µM.

For COc1cc2ncnc(NCCc3ccccc3)c2cc1OC, which Potency is on record?
The Potency was active: 13 µM.

Which Potency does the source give for Cc1ccc2c(=O)n3c(nc2c1)C(Cc1ccccc1)NC(=O)c1cc2ccccc2cc1-3 (centres undefined) here?
Its Potency is inconclusive [inhibitor, single point].

With COc1ccc(N2CCOCC2)c(NC(=O)c2cccc3ccccc23)c1 as the molecule, how does the Potency read?
The Potency was inconclusive [inhibitor, single point].

Which Potency does the source give for O=C1CSC2(C(=O)N(Cc3cccc(C(F)(F)F)c3)c3ccccc32)N1c1ccc(F)c(F)c1 (centres undefined) here?
Its Potency is active: 20.6 µM.

For C=CCOC(=O)C1=C[C@H](c2csc3ccccc23)C[C@H](OCc2ccc(CO)cc2)O1, which Potency is on record?
Its Potency is inconclusive [inhibitor, single point].

With Cc1nc2c(C(=O)NCCc3ccccc3Cl)c[nH]n2c(=O)c1Cl as the molecule, how does the Potency read?
Its Potency is “inactive”.

Which Potency does the source give for COc1cccc(CN(C)C(=O)C2CC(=O)N(c3ccc4c(c3)OCCO4)C2)c1 (centres undefined) here?
Its Potency is inconclusive [inhibitor, partial curve].

Which Potency does the source give for NC(=O)c1ccc(NC(=O)COC(=O)c2c[nH]c3ccccc23)cc1 here?
Its Potency is “inactive”.

For CCc1nnc(NC(=O)c2cccc(NC(=O)C(C)C)c2)s1, which Potency is on record?
The Potency was “inactive”.

Which Potency does the source give for O=C(CSc1ccccc1C(=O)O)NCc1ccc(Cl)cc1 here?
Its Potency is “inactive”.

With CCOc1cc(NC(=O)c2ccco2)c(OCC)cc1NC(=O)Cc1ccc(OC)c(OC)c1 as the molecule, how does the Potency read?
Its Potency is inconclusive [inhibitor, full curve].

With CCOC(=O)N/N=C/c1c(C)nn(-c2ccccc2Cl)c1Cl as the molecule, how does the Potency read?
Its Potency is inconclusive [inhibitor, single point].

Which Potency does the source give for O=C(Cn1cnc2sc(-c3ccccc3)cc2c1=O)NCc1ccco1 here?
Its Potency is active: 6.51 µM.

With Cn1cncc1C#Cc1ccc2c(=O)c3ccccc3oc2c1 as the molecule, how does the Potency read?
Its Potency is inconclusive [inhibitor, single point].

For COc1ccc(-c2c(C)cc3oc(=O)cc(-c4ccccc4)c3c2C)cc1, which Potency is on record?
The Potency was active: 23.1 µM.

With COCCOc1cc2ncnc(N3CCC(C(=O)O)CC3)c2cc1OCCOC as the molecule, how does the Potency read?
The Potency was “inactive”.

For C/C(=N\O)C1(C)N(O)C(C)(C)C(c2ccc(Br)cc2)=[N+]1[O-] (centres undefined), which Potency is on record?
The Potency was inconclusive [inhibitor, partial curve].

With Cc1ccc(CN2CCN(/N=C/c3cccn3C)CC2)c(C)c1 as the molecule, how does the Potency read?
The Potency was active: 23.1 µM.

For COc1ccc(NC(=S)Nc2cccc3ccccc23)cc1OC, which Potency is on record?
Its Potency is “inactive”.

With Cc1ccc(NCCN(C)C)c2c(=O)c3cc(O)ccc3sc12 as the molecule, how does the Potency read?
The Potency was active: 0.146 µM.

With CC(C)(C)c1ccc(N2C(=O)CC(c3ccccc3)C2=O)cc1 (centres undefined) as the molecule, how does the Potency read?
The Potency was inconclusive [inhibitor, single point].

For CCc1ccccc1NC(=O)CN(C)C(=O)CSc1nnc(Nc2cccc(C)c2C)s1, which Potency is on record?
Its Potency is inconclusive [inhibitor, single point].

With C[C@H](NC(=O)OC(C)(C)C)c1nnc(SCC(N)=O)o1 as the molecule, how does the Potency read?
The Potency was “inactive”.

Which Potency does the source give for O=C(c1ccco1)N1CCN(c2ncnc3c2oc2ccccc23)CC1 here?
Its Potency is active: 20.6 µM.

For O=[N+]([O-])c1c(NCc2ccco2)ncnc1NCc1ccco1, which Potency is on record?
Its Potency is “inactive”.

With COc1ccc(-n2c(C)cc(C(=O)CN3C(=O)C(=O)N(Cc4ccccc4)C3=O)c2C)cc1 as the molecule, how does the Potency read?
The Potency was inconclusive [inhibitor, single point].

With O=C(c1cc2cc(Br)cc(Br)c2oc1=O)N1CCOCC1 as the molecule, how does the Potency read?
The Potency was “inactive”.

With CC(Oc1cccnc1[N+](=O)[O-])C(=O)Nc1cccc(Cl)c1 (centres undefined) as the molecule, how does the Potency read?
The Potency was “inactive”.

With Cc1cccnc1NC(=O)CN1C(=O)COc2ccc(Cl)cc21 as the molecule, how does the Potency read?
Its Potency is “inactive”.

Which Potency does the source give for O=C1CCCN1C(=O)CSc1nnnn1-c1cccc(F)c1 here?
Its Potency is “inactive”.

Which Potency does the source give for COc1ccc(NC(=O)NC2CCCc3ccccc32)cc1 (centres undefined) here?
Its Potency is inconclusive [inhibitor, single point].

With CCc1cccc(NC(=O)C2CCN(S(=O)(=O)c3ccc4c(c3)CC(C)N4C(C)=O)CC2)c1 (centres undefined) as the molecule, how does the Potency read?
The Potency was active: 16.4 µM.

Which Potency does the source give for c1ccc2c(c1)OCC(CN1CCCCC1)O2 (centres undefined) here?
The Potency was “inactive”.

For O=C(Nc1cccc(F)c1)C1CCN(C(=O)c2ccc(Br)cc2)CC1, which Potency is on record?
Its Potency is inconclusive [inhibitor, single point].
